A lower IC50 marks a more sensitive line; fits outside the tested doses are given as limits. The AUC spans the tested range (256-fold, ending at the top dose) of the same fit; it is 1 without any effect and falls as sensitivity rises. For some of these results: The top dose, if marked as inferred, was calculated from the reported fits.
How the values were obtained:
Assay in all cases: Viability of human cancer cell lines after 72 h of drug (GDSC screen)
[1] = compound: CC(=O)Nc1cccc(-n2c(=O)n(C3CC3)c(=O)c3c(Nc4ccc(I)cc4F)n(C)c(=O)c(C)c32)c1 [Trametinib]; details: top dose 1 µM
Protocol: (§1)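 Human cancer cell lines in 384-well plates, medium with 10% serum, drug for 72 h over a 256-fold dose range (nine 2-fold or five 4-fold steps up to the top dose). Adherent lines were fixed and stained with the nucleic acid dye Syto60, suspension lines read with resazurin; signal relative to control wells, capped at 0 and 100%. One two-parameter sigmoid per drug and line, fitted in a mixed model over all curves with the slope shared within a line.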

[2] = compound: CCNC(=O)C[C@@H]1N=C(c2ccc(Cl)cc2)c2cc(OC)ccc2-n2c(C)nnc21 [I-BET-762]; details: top dose 20 µM; top dose inferred
Protocol: as §1

[3] = compound: CCc1cncnc1N1CCN(Cc2nc3ccc(C(F)(F)F)cc3[nH]2)CC1 [PF-4708671]; details: top dose 10 µM; top dose inferred
Protocol: as §1

[4] = compound: COc1cc2nccc(Oc3ccc(NC(=O)Nc4cc(C)on4)c(Cl)c3)c2cc1OC [AV-951]; details: top dose 0.128 µM; top dose inferred
Protocol: as §1

[5] = compound: O=C(NC(COc1ccc2[nH]c(=O)[nH]c2c1)c1ccccc1)c1cccn(Cc2ccc(F)c(F)c2)c1=O [KIN001-244]; details: top dose 20 µM; top dose inferred
Protocol: as §1

Row | Cell Line | AUC [1] | IC50 [1] [µM] | AUC [2] | IC50 [2] [µM] | AUC [3] | IC50 [3] [µM] | AUC [4] | IC50 [4] [µM] | AUC [5] | IC50 [5] [µM]
1 | A375 (melanoma, adherent) | 0.033 | < 0.00391 | 0.96 | > 20 | 0.985 | > 10 | 0.991 | > 0.128 | 0.893 | 16.3
2 | BALL-1 (B-cell leukaemia, suspension) | 0.997 | > 1 |  |  | 0.967 | > 10 |  |  |  | 
3 | BT-549 (breast, adherent) | 0.794 | 0.678 |  |  | 0.916 | > 10 |  |  |  | 
4 | CADO-ES1 (Ewing sarcoma, suspension) | 0.981 | > 1 | 0.9 | > 20 | 0.915 | > 10 | 0.971 | > 0.128 | 0.79 | 9.11
5 | CL-34 (large intestine, adherent) | 0.107 | < 0.00391 |  |  | 0.957 | > 10 |  |  |  | 
6 | CL-40 (large intestine, adherent) | 0.244 | 0.00666 |  |  | 0.97 | > 10 |  |  |  | 
7 | CML-T1 (chronic myeloid leukaemia, suspension) | 0.648 | 0.149 |  |  | 0.971 | > 10 |  |  |  | 
8 | COR-L32 (small cell lung carcinoma, suspension) | 0.828 | > 1 |  |  |  |  |  |  |  | 
9 | COR-L321 (lung, suspension) | 0.988 | > 1 | 0.886 | > 20 | 0.929 | > 10 | 0.983 | > 0.128 | 0.894 | > 20
10 | D-423MG (glioma, adherent) | 0.887 | > 1 | 0.863 | > 20 | 0.883 | > 10 | 0.976 | > 0.128 | 0.713 | 5.8
11 | D-566MG (glioma, adherent) | 0.576 | 0.101 | 0.879 | > 20 | 0.889 | > 10 | 0.975 | > 0.128 | 0.87 | 18.1
12 | DIFI (large intestine, adherent) | 0.408 | 0.0346 |  |  | 0.981 | > 10 |  |  |  | 
13 | DOV13 (ovary, adherent) | 0.711 | 0.273 | 0.982 | > 20 | 0.932 | > 10 | 0.983 | > 0.128 | 0.829 | 15.1
14 | EMC-BAC-1 (lung adenocarcinoma, adherent) | 0.509 | 0.0664 | 0.864 | > 20 | 0.959 | > 10 | 0.954 | > 0.128 | 0.926 | > 20
15 | EMC-BAC-2 (lung adenocarcinoma, adherent) | 0.568 | 0.0991 | 0.842 | 18 | 0.958 | > 10 | 0.972 | > 0.128 | 0.89 | > 20
16 | ESO26 (oesophagus, adherent) | 0.978 | > 1 | 0.669 | 3.58 | 0.989 | > 10 | 0.983 | > 0.128 | 0.698 | 4.33
17 | ESO51 (oesophagus, semi-adherent) | 0.705 | 0.302 | 0.694 | 5.54 |  |  | 0.972 | > 0.128 | 0.873 | > 20
18 | FLO-1 (oesophagus, adherent) | 0.645 | 0.19 | 0.951 | > 20 | 0.898 | > 10 | 0.965 | > 0.128 | 0.792 | 13.9
19 | H2810 (mesothelioma, adherent) | 0.648 | 0.168 |  |  | 0.966 | > 10 |  |  |  | 
20 | HCC202 (breast, adherent) | 0.966 | > 1 | 0.836 | > 20 | 0.944 | > 10 |  |  | 0.867 | > 20
21 | HCC1143 (breast, adherent) | 0.522 | 0.0736 | 0.975 | > 20 | 0.979 | > 10 | 0.966 | > 0.128 | 0.911 | > 20
22 | HCC-366 (non-small cell lung carcinoma, adherent) | 0.98 | > 1 |  |  | 0.988 | > 10 |  |  |  | 
23 | HMV-II (melanoma, adherent) | 0.112 | < 0.00391 | 0.959 | > 20 | 0.968 | > 10 | 0.978 | > 0.128 | 0.814 | 14
24 | HT-3 (cervix, adherent) | 0.628 | 0.142 | 0.88 | > 20 | 0.971 | > 10 | 0.983 | > 0.128 | 0.936 | > 20
25 | Hey (ovary, adherent) | 0.164 | 0.00642 | 0.92 | > 20 | 0.935 | > 10 | 0.984 | > 0.128 | 0.887 | > 20
26 | IGROV-1 (ovary, adherent) | 0.59 | 0.124 |  |  | 0.933 | > 10 |  |  |  | 
27 | JEKO-1 (B-cell lymphoma, suspension) | 0.984 | > 1 |  |  | 0.954 | > 10 |  |  |  | 
28 | JHOS-2 (ovary, adherent) | 0.249 | 0.0104 | 0.962 | > 20 | 0.962 | > 10 | 0.983 | > 0.128 | 0.81 | 12.7

— the supplement of paper PMC4967469
